B1: CPEB3 Ribozyme (parent)
chain: UAACAGGGGGCCACAGCAGAAGCGUUCACGUCGCAGCCCCUGUCAGAUUCUGGUGAAUCUGCGAAUUCUGCUGUAUAUCUC

The source gives no read counts; variants with many changes may rest on few reads.

In the series the parent is B1. The series can be described thus: self-cleavage, relative activity (ratio to wild type); higher = more cleavage; in vitro, sequencing. Summed up: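 Relative activity compares each variant's cleaved/total read fraction with that of the unmutated ribozyme. To get these fractions, barcoded CPEB3 ribozyme libraries from rounds of error-prone PCR were transcribed with T7 RNA polymerase for 5 hours at 37°C and then given 15 min of DNase I treatment before EDTA was added. The RNAs were reverse transcribed with template switching and sequenced on Illumina, and DNA sequencing linked barcodes to variants. A minimum of 5 reads applied, and three batches were averaged.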
On to UAACAGAGGGCCACAGCAGAAGCGUUCACGUCGCUGCCCCUGUCAGAUUCUGGUGAUUCUGCGAACUCUGCGGCAUAUCUC [G7A A35U A57U U66C U72G U74C], for which the self-cleavage amounted to 0.12.

Take UAACAGAGGGCCACAGCAGAAGCGCUCACGUCGCAGCCCCUGUCAGAUUCUGGUGAAUCUGCGAAUUCUGCUGUAUAUCCC [G7A U25C U80C]: the self-cleavage came to 0.12. With UAACAGAGGGCCACAGCAGAAGCGUCCACGUCGCAGCCCCUGUCAGAUUCUGGCGAAUCUGCGAAUCCUGCUGUAUAUCUC [G7A U26C U54C U67C], the self-cleavage stood at 0.11. To UAACAGAGGGCCACAGCAGAAGCGUUCACGUCGCGGCCCCUGUCAGAUUCUGGUGGAUCUGCGAAUUCUGCUGCAUAUCUC [G7A A35G A56G U74C] belongs 0.32. As to UAACAGAGGGCCACAGCAGAAGCGUUCACGUCGCAGCCCCUGUCAGAUUCUGGUGAAUCUGCGAAUCCUGCUGGAUAUCUC [G7A U67C U74G], the self-cleavage was 0.04. In the case of UAACAGAGAGCCACAGCAGAAGCGUUCAUGUCGCAGCCCCUGUCAGAUUCUGGUGAAUCUGCGAAUUCUGCUGUAUAUCUC [G7A G9A C29U], the self-cleavage is 0.06. For the variant UAACAGAGGGCCACAGCAGAAGCGUUCACGUCGCAGCCGCUGUCAGAUUCUGGUGAGUCUGCGAAUUCUGCUGUAUGUCCC [G7A C39G A57G A77G U80C], the self-cleavage is 0.05. Take UAACAGCGGGCCACGGUAGAAGCGUUCACGUAGCAGCCCCUGUCAGAUUCUGGUGAAUCUGCGAAUUCUGCCGUAUAUCCC [G7C A15G C17U C32A U72C U80C]: the self-cleavage was found to be 0.05. Consider UAACAGAGGGCCACAGCAGAAGCGUUCACGUGGCAGCCCCUGUCAGAUUCUGGUGAAUCUGCGAAUUCUGCUGUAUAACUC [G7A C32G U78A], for which the self-cleavage is 0.04. Under UAACAGAGGGCCACAGCAGAAGCGCCCACGUCGCAGCCCCUGUCAGGUUCUGGUGGAUCUGCGAAUUCUGCUGUAUAUCUC [G7A U25C U26C A47G A56G] stands 0.07; under UAACAGCGGGCCUCAGCAGAAGCGUUCACGUCGCAGCCCCUGUCAGAUUCUGGAGAAUCUGCGGAUUCAGCUGAAUAUCUC [G7C A13U U54A A64G U69A U74A], 0.05. As for UAACAGAGGGCCACAGCAGAAGCGUUCACGUCGCAGCCCCUGUCUGAUUCUGGAGUAUCUGCGAAUUCUGCUGUAUCUCAC [G7A A45U U54A A56U A77C U80A], the self-cleavage stood at 0.04.

For UAACAGAGGGCCACAGCAGAAGCGUUCACGUCGCAGCCCCUUUCGGAUUCUGGUGAGUCUGCGAAUUCUGCUGUAUAUCUC [G7A G42U A45G A57G], the self-cleavage was found to be 0.05. Regarding UAACAGAGGGCCACAGCAGAAGCGCUCACGUCGCAGCCCCUGUCAGAUUCUGGUGAAUCUGCGAGUUCCGCUGUAUAUCUC [G7A U25C A65G U69C], the self-cleavage came out at 0.08. With UAACAGAGGGCCACAGCAGAAGCGUUCACGUCGCAGCCCCUGUCAGAUUCUGGUGUAACUGCGAAUUCUGCUGUAUACCUC [G7A A56U U58A U78C], the self-cleavage was 0.09. Under UAACAGAGGGCCAUAGCAGAAGCGUUUACGUCGCAGCCCCUGUCGGAUUCUGGGGAAUCUGCGAAUUCUGCUGCUUAUCUC [G7A C14U C27U A45G U54G U74C A75U] stands 0.04; under UAACAGAGGGCCACAGCAGAAGCGUUCACGUCGCAGCCCCUGUCAGACUCUGGUGAAUCUGCGAAUUCUGCUGUAUAACUC [G7A U48C U78A], 0.16. With UAACAGAGGGCCACAGCAGAAGCGUUCACGUCGCAGCCCCUGUCAGAUUCUGGUGAAUCUGCGAAUCUUGCUGUAUAUCCC [G7A U67C C68U U80C], the self-cleavage was 0.28. Consider UAACAGCGGGCCACAGCUCAAGCGUUCCCGUUGCAGCCCCUGUCGGAUUCUGGUGAAUCUGCGAACUCUGCUGUAUAUCUC [G7C A18U G19C A28C C32U A45G U66C], for which the self-cleavage is 0.12.

Take UAACAGCGGGCCACGGCGGAAGCGUUCGCGUCGCAGCCCCAGUCAGAUUCUGGUGAAUCUGCGAAUUCAGCUGCAUAUCUC [G7C A15G A18G A28G U41A U69A U74C]: the self-cleavage was 0.05. For UAACAGAGGGCCACAGCAGAAGCGUUCACGUCGCAGCCCCUGUCAGACUCUGGUGUAUCUGCCAUUUCUGCUGUAUAUCUC [G7A U48C A56U G63C A65U], the self-cleavage amounted to 0.07. As to UAACAGAGGGCCACAGCAGAAGCGUCCACGUCGCAGCCCCUGCCAGAUUCUGGUGAAUCCGCGAACUCUGCUGUAUAUCUC [G7A U26C U43C U60C U66C], the self-cleavage was 0.06. For the variant UAACAGAGGGCCACAGCAGAAGCGUUCUCGUCGCAGCCCCACUCAGAUUCUGGUGAAUCUGCGAGCUCCGCUGUAUAUCUC [G7A A28U U41A G42C A65G U66C U69C], the self-cleavage is 0.08.

As for UAACAGCGGGCCACGGCAGAAGCGUUCUCGUCGCAGCCCCUGUCGGAUUCUGGUGAAUCUGCGAAUUCUGCUGUAUGUCUC [G7C A15G A28U A45G A77G], the self-cleavage amounted to 0.26. On to UAACAGAGGGCCACAGCAGAAGCGAUCACGUCGCAGCCCGUGUCGGAUGCUGGUGAAUCUGCGAAUUCAGCUGUAUAUCUC [G7A U25A C40G A45G U49G U69A], for which the self-cleavage was 0.09. On to UAACAGAGGGCCACAGCAGAAGCGUUCACGUCGCAUCCCCUGUCGGGUUCUGGUGAAUCAGCGAAUUCUGCAGUAUAUCUC [G7A G36U A45G A47G U60A U72A], for which the self-cleavage turned out to be 0.11. Regarding UAACAGAGGGCCACAGCAGAAGCGUUCACGUCGCAGCCCCAGUCAGAUUCUGGUGAGUCUGCGAAUUCUGCUGUAUAUCUC [G7A U41A A57G], the self-cleavage was 0.2. UAACAGAGGGCCACAGCAGAAGCGUUCACGUCGCUGCCCCUGUCAGAUUCUGGUGAAUCUGCGAAUUCUGCUGUAUACCUC [G7A A35U U78C]: the self-cleavage was 0.2. In the case of UAACAGAGGGCCACAGCAGAAGCGUUCAUGACGCAGCCCCUGCCAGAUUCUGGUGAAUCUGCGAAUCCUGCUGUAUAUCUC [G7A C29U U31A U43C U67C], the self-cleavage stood at 0.01. In the case of UAACAGAGGGCCACAGCAGAAGCGUUCACGUCGCAGCCCUUGUCAGAUUCUGGUGAAUCUGCGAAUUCUGCUGUAUAUCCC [G7A C40U U80C], the self-cleavage worked out at 0.44. With UAACAGAGGGCAACAGCAGGAGCGUUCACGUCGCACCCCCUGUCAGAUUCUGGUAAAUCUGCUAAUCCUGCUGUAUAUCUC [G7A C12A A20G G36C G55A G63U U67C], the self-cleavage amounted to 0.04.

With UAACAGAGGGCCACAGCAGAAGCGUGCACGUCGCAGCCCCCGUCAGAUCCAGGUGAAUCUGCGAAUUUUGCUGUAUAUCUC [G7A U26G U41C U49C U51A C68U], the self-cleavage worked out at 0.04. Take UAACAGAGGGCCACAGCAGAAGCGUCCACGUCGCAGCCCCUGUCAGAUUCUGGUGGAUCUGCGAAUUCUGCCGUAUAUCCC [G7A U26C A56G U72C U80C]: the self-cleavage turned out to be 0.31.

With UAACAGCGGGCCACAGCCGAUGCGUUCACGUCGCAGCCCCUGUCAGAUUCUGGUGAAUCUGCGAAUUCUGCUGUAUAUCUC [G7C A18C A21U], the self-cleavage was 0.21.
